Assay results from the supplement of paper PMC8728848.
This is one part of the list.

Key:
Test in all cases: glycan array binding signal (z-score within array); higher = stronger binding
Details in all cases: glycan notation: IUPAC condensed, linker removed
[1] = target: GlcNAc(b1-4)GlcNAc(b1-4)GlcNAc(b1-4)GlcNAc(b1-4)GlcNAc(b1-4)GlcNAc
How it was run: (§1)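 The Consortium for Functional Glycomics database supplied 3228 glycan arrays, of which those lacking an available protein sequence were dropped. The binding signal, a within-array Z-score, was averaged across arrays of the same protein sequence and across linkers. Negative scores can be read as non-binding.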

[2] = target: GlcNAc(b1-4)[GlcNAc(b1-6)]GalNAc
How it was run: as §1

[3] = target: GlcNAc(b1-6)Gal(b1-4)GlcNAc
How it was run: as §1

GlcNAc(b1-6)GalNAc = target: GlcNAc(b1-6)GalNAc
How it was run: as §1

[4] = target: GlcNAc6S(b1-3)Gal(b1-4)GlcNAc
How it was run: as §1

Kdn(a2-3)Gal(b1-3)GalNAc = target: Kdn(a2-3)Gal(b1-3)GalNAc
How it was run: as §1

Kdn(a2-3)Gal(b1-3)GlcNAc = target: Kdn(a2-3)Gal(b1-3)GlcNAc
How it was run: as §1

Kdn(a2-3)Gal(b1-4)Glc = target: Kdn(a2-3)Gal(b1-4)Glc
How it was run: as §1

Kdn(a2-3)Gal(b1-4)GlcNAc = target: Kdn(a2-3)Gal(b1-4)GlcNAc
How it was run: as §1

[5] = target: Kdn(a2-3)Gal(b1-4)[Fuc(a1-3)]GlcNAc
How it was run: as §1

Kdn(a2-6)Gal(b1-4)GlcNAc = target: Kdn(a2-6)Gal(b1-4)GlcNAc
How it was run: as §1

[6] = target: Man(a1-2)Man(a1-2)Man(a1-3)Man
How it was run: as §1

[7] = target: Man(a1-2)Man(a1-2)Man(a1-6)[Man(a1-3)]Man
How it was run: as §1

Man(a1-2)Man(a1-3)Man = target: Man(a1-2)Man(a1-3)Man
How it was run: as §1

[8] = target: Man(a1-2)Man(a1-3)[Man(a1-2)Man(a1-6)]Man
How it was run: as §1

[9] = target: Man(a1-2)Man(a1-3)[Man(a1-2)Man(a1-6)]Man(a1-6)[Man(a1-2)Man(a1-2)Man(a1-3)]Man
How it was run: as §1

[10] = target: Man(a1-2)Man(a1-3)[Man(a1-2)Man(a1-6)]Man(a1-6)[Man(a1-2)Man(a1-2)Man(a1-3)]Man(b1-4)GlcNAc(b1-4)GlcNAc
How it was run: as §1

[11] = target: Man(a1-2)Man(a1-3)[Man(a1-6)]Man(a1-6)[Man(a1-2)Man(a1-3)]Man(b1-4)GlcNAc(b1-4)GlcNAc
How it was run: as §1

[12] = target: Man(a1-2)Man(a1-6)[Man(a1-3)]Man(a1-6)[Man(a1-2)Man(a1-2)Man(a1-3)]Man
How it was run: as §1

[13] = target: Man(a1-2)Man(a1-6)[Man(a1-3)]Man(a1-6)[Man(a1-2)Man(a1-2)Man(a1-3)]Man(b1-4)GlcNAc(b1-4)GlcNAc
How it was run: as §1

Man(a1-3)[Man(a1-6)]Man = target: Man(a1-3)[Man(a1-6)]Man
How it was run: as §1

[14] = target: Man(a1-3)[Man(a1-6)]Man(a1-6)[Man(a1-2)Man(a1-3)]Man(b1-4)GlcNAc(b1-4)GlcNAc
How it was run: as §1

[15] = target: Man(a1-3)[Man(a1-6)]Man(a1-6)[Man(a1-3)]Man
How it was run: as §1

[16] = target: Man(a1-3)[Man(a1-6)]Man(a1-6)[Man(a1-3)]Man(b1-4)GlcNAc(b1-4)GlcNAc
How it was run: as §1

[17] = target: Man(a1-3)[Man(a1-6)]Man(b1-4)GlcNAc(b1-4)GlcNAc
How it was run: as §1

[18] = target: Man(a1-3)[Man(a1-6)]Man(b1-4)GlcNAc(b1-4)[Fuc(a1-6)]GlcNAc
How it was run: as §1

Man(a1-6)Man = target: Man(a1-6)Man
How it was run: as §1

Man(b1-4)GlcNAc = target: Man(b1-4)GlcNAc
How it was run: as §1

MurNAc(b1-4)GlcNAc = target: MurNAc(b1-4)GlcNAc
How it was run: as §1

Neu5Ac(a2-3)Gal = target: Neu5Ac(a2-3)Gal
How it was run: as §1

[19] = target: Neu5Ac(a2-3)Gal(b1-3)GalNAc
How it was run: as §1

[20] = target: Neu5Ac(a2-3)Gal(b1-3)GalNAc(b1-3)Gal(a1-4)Gal(b1-4)Glc
How it was run: as §1

[21] = target: Neu5Ac(a2-3)Gal(b1-3)GalNAc(b1-4)[Neu5Ac(a2-3)]Gal(b1-4)Glc
How it was run: as §1

[22] = target: Neu5Ac(a2-3)Gal(b1-3)GalNAc(b1-4)[Neu5Ac(a2-8)Neu5Ac(a2-3)]Gal(b1-4)Glc
How it was run: as §1

[23] = target: Neu5Ac(a2-3)Gal(b1-3)GalNAc6S
How it was run: as §1

[24] = target: Neu5Ac(a2-3)Gal(b1-3)GlcNAc
How it was run: as §1

[25] = target: Neu5Ac(a2-3)Gal(b1-3)GlcNAc(b1-2)Man
How it was run: as §1

B1: GSL-I-B4 (Griffonia simplicifolia) (protein)
chain: NFWSDVEDSIIFQGDANTTAGTLQLCKTNQYGTPLQWSAGRALYSDPVQLWDNKTESVASFYTEFTFFLKITGNGPADGLAFFLAPPDSDVKDAGEYLGLFNKSTATQPSKNQVVAVEFDTWTNPNFPEPSYRHIGINVNSIVSVATKRWEDSDIFSGKIATARISYDGSAEILTVVLSYPDGSDYILSHSVDMRQNLPESVRVGISASTGNNQFLTVYILSWRFSSNLQSTSVKAAMEPEITRTVV
Q: With B1 as the binder, how does the “glycan array binding signal (z-score)” value [1] read?
A: The value was -0.005.

Q: And the “glycan array binding signal (z-score)” value [2]?
A: The value was -0.195.

Q: What about the “glycan array binding signal (z-score)” value [3] of the same binder?
A: Its value is -0.146.

Q: What about the “glycan array binding signal (z-score)” value (GlcNAc(b1-6)GalNAc) of the same binder?
A: The value was -0.177.

Q: And the “glycan array binding signal (z-score)” value [4]?
A: The value was -0.147.

Q: And the “glycan array binding signal (z-score)” value (Kdn(a2-3)Gal(b1-3)GalNAc)?
A: The value was -0.163.

Q: And the “glycan array binding signal (z-score)” value (Kdn(a2-3)Gal(b1-3)GlcNAc)?
A: The value was -0.201.

Q: And the “glycan array binding signal (z-score)” value (Kdn(a2-3)Gal(b1-4)Glc)?
A: The value was -0.131.

Q: What about the “glycan array binding signal (z-score)” value (Kdn(a2-3)Gal(b1-4)GlcNAc) of the same binder?
A: The value was -0.166.

Q: And the “glycan array binding signal (z-score)” value [5]?
A: Its value is -0.145.

Q: What about the “glycan array binding signal (z-score)” value (Kdn(a2-6)Gal(b1-4)GlcNAc) of the same binder?
A: The value was -0.163.

Q: What about the “glycan array binding signal (z-score)” value [6] of the same binder?
A: Its value is -0.124.

Q: What about the “glycan array binding signal (z-score)” value [7] of the same binder?
A: The value was -0.073.

Q: What about the “glycan array binding signal (z-score)” value (Man(a1-2)Man(a1-3)Man) of the same binder?
A: Its value is -0.167.

Q: What about the “glycan array binding signal (z-score)” value [8] of the same binder?
A: The value was -0.153.

Q: What about the “glycan array binding signal (z-score)” value [9] of the same binder?
A: Its value is -0.158.

Q: And the “glycan array binding signal (z-score)” value [10]?
A: The value was -0.063.

Q: And the “glycan array binding signal (z-score)” value [11]?
A: Its value is -0.177.

Q: What about the “glycan array binding signal (z-score)” value [12] of the same binder?
A: The value was -0.17.

Q: And the “glycan array binding signal (z-score)” value [13]?
A: The value was -0.18.

Q: And the “glycan array binding signal (z-score)” value (Man(a1-3)[Man(a1-6)]Man)?
A: Its value is -0.153.

Q: And the “glycan array binding signal (z-score)” value [14]?
A: Its value is 0.017.

Q: And the “glycan array binding signal (z-score)” value [15]?
A: Its value is -0.116.

Q: And the “glycan array binding signal (z-score)” value [16]?
A: The value was -0.159.

Q: What about the “glycan array binding signal (z-score)” value [17] of the same binder?
A: The value was -0.15.

Q: What about the “glycan array binding signal (z-score)” value [18] of the same binder?
A: The value was -0.141.

Q: And the “glycan array binding signal (z-score)” value (Man(a1-6)Man)?
A: Its value is -0.202.

Q: And the “glycan array binding signal (z-score)” value (Man(b1-4)GlcNAc)?
A: Its value is -0.19.

Q: And the “glycan array binding signal (z-score)” value (MurNAc(b1-4)GlcNAc)?
A: Its value is -0.182.

Q: What about the “glycan array binding signal (z-score)” value (Neu5Ac(a2-3)Gal) of the same binder?
A: Its value is -0.149.

Q: And the “glycan array binding signal (z-score)” value [19]?
A: Its value is -0.137.

Q: What about the “glycan array binding signal (z-score)” value [20] of the same binder?
A: The value was -0.102.

Q: What about the “glycan array binding signal (z-score)” value [21] of the same binder?
A: Its value is -0.147.

Q: What about the “glycan array binding signal (z-score)” value [22] of the same binder?
A: Its value is -0.187.

Q: And the “glycan array binding signal (z-score)” value [23]?
A: The value was -0.2.

Q: What about the “glycan array binding signal (z-score)” value [24] of the same binder?
A: The value was -0.178.

Q: And the “glycan array binding signal (z-score)” value [25]?
A: The value was -0.176.
